Experimental data: the supplement of paper PMC11417369
Some of the results follow.

These sequences were tested on PfAP2-HC AP2 domain (GST-tagged) (assay: gcPBM binding intensity (ln(normalized median fluorescence intensity)); higher = stronger DNA binding).
Outline: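 An Agilent 4 × 180k array of primer-extended double-stranded 36-bp intergenic genomic probes, with negative controls, was incubated for 1 h with GST-tagged P. falciparum DNA-binding domains expressed in E. coli. Alexa488 anti-GST antibody detected bound protein, scanned at 488 nm. Binding intensity is the highest Masliner-normalised natural-log median intensity across replicate spots of either probe orientation.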

| Sequence | gcPBM binding intensity (ln) |
| --- | --- |
| TTAGGCAAGGCGGGGGGTACGTTTTTATATAATTAT [XGTACX_site8029] | 10.2 |
| TTAGATTTATAAGTGTGTACGTAAAATACTTAATAA [XGTACX_site8246] | 9.59 |
| TCATATAAATACACGTGTACATATATATATTACAGT [XGTACX_site1954] | 9.91 |
| AAAAAATATATATGCACACACAAAAAAACAAATTAA [CACACA_site1278] | 10.1 |
| AGTTTGCATATGGAAGTGCATTACCTTGAACATCAT | 9.57 |
| AATATAAAAAATAGTTGTACTATATTTAAATATGAC [XGTACX_site2937] | 9.76 |
| ACTAAACGAATAAATTGTACAAAGAAATATATTCAT [XGTACX_site6766] | 9.88 |
| ACTACGTGGATTAGTTCAAGGGAACACGTCCTATAC [CACACA_negctrl_site1427] | 9.54 |
| CAACAAAAGTTATTTACACACAAAAGGCAAGGAAAT [CACACA_site7013] | 9.95 |
| AAAGGAAATAAAAACGCACACAGAAATAATATCTAT [CACACA_site457] | 10.2 |
| ATATTTCATTTTTGTACACACAACGTTGGAGGGTTT [CACACA_site3043] | 9.81 |
| TAAAAAATTACATATTGTACAGGCAAAATTACACAT [XGTACX_site1152] | 9.71 |
| CCCACTAAAAAACACACACACACACCCATATATATA [CACACA_site6140] | 11 |
| ATATGTATTAAGTGTACACATATAATCTATCTTGTT [CACACA_site5329] | 9.8 |
| TTTTTTTTATATAGTAGTACTAATTAGAATTTTTAT [XGTACX_site7476] | 9.48 |
| TATATGTTTTATAGTACACACATAAATGGACATACT [CACACA_site2191] | 9.72 |
| TGAATTTAGATATATACACACAAAAGTATATACAAT [CACACA_site2804] | 9.89 |
| GTTGGTAGGCGGTACGGTACACGTAAAGTTTTTCTT [XGTACX_site7706] | 9.77 |
| ATAAATGACAAATTAACACACATATATTATATATAT [CACACA_site3899] | 9.84 |
| ACCATATAAATAAACACACACACACGGATATAAATA [CACACA_site7157] | 10.6 |
| TACATACATACATACACACATACATATGTATATATA [CACACA_site2480] | 9.84 |
| TAATGCCATAATACGTGTACTTAATATATTAGAACA [XGTACX_site5809] | 9.58 |

| Sequence | gcPBM binding intensity (ln) |
| --- | --- |
| CTCAAATGTTATTGTAGTACCTAAAAAATATATTCT [XGTACX_site1970] | 9.5 |
| TATAATGCTCTTCTTTGTACATATTATGATTATATT [XGTACX_site2332] | 9.75 |
| AAAGGAAAATGTGTAAAAAGAAATGCTAGGTATATA [GTGCAC_negctrl_site699] | 9.89 |
| ATATATATATAATATAGTACGTATAATATATGAATC [XGTACX_site4385] | 9.99 |
| TTTTTGTTATATAAAGTGCAGTGACAAGCAGTTTAA | 9.56 |
| AGTGGTGTTAAATGTTGTACGATTTTGTGTTATTCG [XGTACX_site178] | 9.86 |
| ATTTAAGCATTATTTTGTACGAAAATAAAAAAATGA [XGTACX_site6958] | 9.57 |
| ATATAAAAAAATAAAACACACACATATATATTATAT [CACACA_site8909] | 10.8 |
| TATGTAACAAAAAAAAGTACACATATATATAGTGTA [XGTACX_site7772] | 9.78 |
| AAGATAATCACAAAATGTACAGGAAATATGACAACC [XGTACX_site3607] | 9.88 |
| ACTGCGTTTTTACACGCGCACTGCAATGAACAATAT | 9.54 |
| AATGGTATAAACAATACACACATAATATATATATTG [CACACA_site4997] | 9.88 |
| AAGAAAAAGGAACGGAAAAACAAACAAGGGGCCCAA [TGCATGCA_negctrl_site4] | 9.79 |
| TTTTCTAAATTAATAATACACACTTGCTAAAATCAT [CACACA_site3207] | 9.4 |
| AGTCTGAATAAAATTACACACATATACAGATATATA [CACACA_site5054] | 9.8 |
| ATATCATTTTCTAGCACACACATTGTTATTACCTTG [CACACA_site902] | 10.2 |
| TTTCTAAAAATAAGAACACACACATATAAGCATATA [CACACA_site8714] | 10 |
| TTTTTTTAAATATACACACACATTTATACAGATATA [CACACA_site5811] | 10.1 |
| TATTAGAACATATATGCATGCAATAGATATTCCAAT [TGCATGCA_site297] | 9.65 |
| TATGTATAATTTCATTGTACTTTTGATATTATCATA [XGTACX_site280] | 9.57 |
| TTTAAATATTACATATGTACTTATAAATATATATAT [XGTACX_site1284] | 9.84 |
| AAGGAATAGGCATATACACACAGGTACAGATATATA [CACACA_site4402] | 10.1 |
